Measurements from paper PMC12136788.
The other results are listed elsewhere or left out.

T1: UNK ZnF1-3 (human, UniProt Q9C0B0 31-174)
T1 sequence: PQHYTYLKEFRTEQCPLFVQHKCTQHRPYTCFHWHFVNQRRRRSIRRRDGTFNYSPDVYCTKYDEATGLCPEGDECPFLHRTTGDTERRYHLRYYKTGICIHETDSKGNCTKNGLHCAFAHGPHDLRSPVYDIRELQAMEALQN

B1: chr20:7962013:7962014:-_ENSG00000125827_ENST00000246024|hu_mus|motif|central (ssRNA)
RNA: GGGAGUUCUACAGUCCGACGAUCGGGUUCAGAAAAACAAAGGAUGUGGCUGGAGAAACUCUUGAAGAAGUUAUCCUGUAACGGUAGGACCCAAAAAAGAUGUUGCUUGUACCUGUCCUAUGAAACUGCCACUGCCUUUUGAAUCAACAGAGGAUUGAGCAUCA
B2: chr21:34877999:34878000:-_ENSG00000159131_ENST00000381815|hu_hu|FALSE|FALSE (ssRNA)
RNA: GGGAGUUCUACAGUCCGACGAUCGUCAAUUGCACUGUCAAAUUCUACACGAUUUUUAUACAGUUUAUGAUUAAUUACUCUAGUGGGAAUACCAGCUCUUUCCGCUUUAUCUAACCCAGCUACUGCGGCUUUGUUGGAGAUAACCAACAGAGGAUUGAGCAUCA
B3: chrX:67713009:67713010:-_ENSMUSG00000073139_ENSMUST00000101506|mus_mus|motif|central (ssRNA)
RNA: GGGAGUUCUACAGUCCGACGAUCUACAGGAGCAAAAAAUAGUGGAUUUAACCACAUUUUUAAGAGACCAAACAAAAAAUGCGGCACUGCUUCCCCUUUCUUCUGAAACAGAACAGGCUCACUGGAGGCCUGUGCCAAGGGUAGCAACAGAGGAUUGAGCAUCA
B4: 159436158_159437584_99_3pUTR_ENSG00000113312_ENST00000231238|human|control|control (ssRNA)
RNA: GGGAGUUCUACAGUCCGACGAUCCAUUUAACAGAUCCUCUGGAACCCCACAGUUCUCUGACUUCUCCCCCAUGCUGCCCAGUGAGGGAGGUGACGCUAAAGAACCUCACAGCUUCUCCGGUCUCCACCUUCUUAGCCUCUGAGCAACAGAGGAUUGAGCAUCA
B5: chr4:95690885:95690886:+_ENSMUSG00000028572_ENSMUST00000156910|mus_mus|mus_mus_mus_hu_False|1_58 (ssRNA)
RNA: GGGAGUUCUACAGUCCGACGAUCUUUAGAAAAUGUUAAAUACCAUGCUAAAAUAUUUUCAAAGGCUUAUUUUAUUUUACUAAAAGACACAGGCAAGCAGACACUACAAGAAUAUAUGAAAAUGAAACUCAACAAUAAAAUGUACAACAGAGGAUUGAGCAUCA
B6: chr7:141438946:141438947:+_ENSG00000106028_ENST00000265304|hu_mus|hu_hu_hu_mus_True|28_108 (ssRNA)
RNA: GGGAGUUCUACAGUCCGACGAUCGACUACCUGUAAUUAACACAGGUCUUCGAAACAUGGCUUCUGUUUUUCUUACAACCUAAUCUUUAGGCUUUUCCUAAAGGAAAAACCCGAGCAAGAAAAAUGAUAAAUCAAGAAACUACACAACAGAGGAUUGAGCAUCA
B7: chr1:163112212:163112213:-_ENSG00000143248_ENST00000313961|hu_mus|FALSE|FALSE (ssRNA)
RNA: GGGAGUUCUACAGUCCGACGAUCUUUUAUUAUCAGUAAGAGUGAGUUACAUACUAGGCAAAGUAUUGGAUACAAUAAUCAGGAAACAAACACUAUUGGUCCAGAAUUUAAAACUUUAUGAGCGAAGUGCUGGCACAGGACUUACAACAGAGGAUUGAGCAUCA
B8: 74054674_74055216_553_CDS_ENSG00000164347_ENST00000509430|human|control|control (ssRNA)
RNA: GGGAGUUCUACAGUCCGACGAUCUCCCAGUGAUCUUGUAUAUCCGGAAUAGUACAAUAUUCUUUCUGUGGUGGUAGUUUUGCCUGCAUCAAUAUGAGCCAUAAUUCCAAUAUUACGGAUUUUAGCUAUGGGAGGAUUGAUGAUCAACAGAGGAUUGAGCAUCA
B9: chr2:202488911:202488912:-_ENSG00000155755_ENST00000286196|hu_mus|hu_hu_hu_mus_False|68_68 (ssRNA)
RNA: GGGAGUUCUACAGUCCGACGAUCAUUGAAACAUUUUUCAUAAUCUCCAGUAGCAUUUCAGCAUUAUUAAUCAAAAACUCAAUUGUAAAUACAUGUAUCUUAUAAAAAUACACUUAAAAACACGAGUGGGGAGCGCAGGCGCCACAACAGAGGAUUGAGCAUCA
B10: chr19:16452684:16452685:+_ENSMUSG00000024639_ENSMUST00000025541|perfect_dup|motif|central (ssRNA)
RNA: GGGAGUUCUACAGUCCGACGAUCGUUUAAGAACAGAAUCACAGAGGAGUUCUGGAACCAGGGGUAGGUGAUAAUUGUUCGGAAGAGUGCUUUGCUCUCCUCCAUGCGGUUCUCAUUGUCUGACUCCACAAGAACUUGAUCAUACAACAGAGGAUUGAGCAUCA
B11: chr17:4848066:4848067:+_ENSG00000108523_ENST00000575111|hu_hu|FALSE|FALSE (ssRNA)
RNA: GGGAGUUCUACAGUCCGACGAUCAGUUUCUUCCUCUUGGUCUUCGUCCCCAGGACCCCGAUGAACAGGCUGCUUGCAAAUGGGGCAGGUCUUCCGGGUCUGAGUGAGCCAGGGGUCCACGCAGCGGCUGUGGUAGGCAUGAGCCAACAGAGGAUUGAGCAUCA
B12: chr18:52893488:52893489:-_ENSG00000196628_ENST00000354452|hu_hu|motif|central (ssRNA)
RNA: GGGAGUUCUACAGUCCGACGAUCCAUUUAGACCAUUUCAAUGGAUUUAUGGCAUUUACUCAGUGCUGAUAGGUGGAAAAACGGCUUGAACAGGGAUUUUUUUUUUUCUUAAUACAUGCCAAGAAUUGUGUGGCUGUAAAAAUACAACAGAGGAUUGAGCAUCA
B13: chr4:25749455:25749456:-_ENSG00000091490_ENST00000264868|hu_hu|hu_hu_hu_mus_False|68_98 (ssRNA)
RNA: GGGAGUUCUACAGUCCGACGAUCGCACUAUGACCUCCCCUAGAAAACACAGGGGGAAAAAAUGUAAACCAAUUUACAAUGUUAUCGCCUUCCCUGUGUGUGGAGUGUUUGUCUCAAGGCUCCUUCUAGCUGCUGGAUUUGGGACAACAGAGGAUUGAGCAUCA
B14: chr2:176793893:176793894:-_ENSG00000144320_ENST00000272748|hu_hu|FALSE|FALSE (ssRNA)
RNA: GGGAGUUCUACAGUCCGACGAUCAAAAUGAAACUGAUGCCAGAUUAUUUUCAUUUUCCUUAAUAAAAUACAAACAAGAGCACAAAAUUCACUUAUAUAUCAUCAUUUUAUACUUAUAAAUAAUGCUCAGAAUUCAAAUAGGGUCAACAGAGGAUUGAGCAUCA
B15: chr18:56819859:56819860:+_ENSG00000166562_ENST00000588875|hu_mus|hu_hu_hu_mus_True|8_68 (ssRNA)
RNA: GGGAGUUCUACAGUCCGACGAUCAACCUUGAUUACUCUGUGAACUAUCGGAAUGUCUCUUCCUUCAACUUUAAAAACAACUAUUUCACCAGCUCUGAUGGGGUCCUCCCGGAAAUUCGUGAGGAACAGGAGGUCUCCUCUGUGCAACAGAGGAUUGAGCAUCA
B16: chr11:75505782:75505783:+_ENSMUSG00000017776_ENSMUST00000017920|mus_mus|motif|central (ssRNA)
RNA: GGGAGUUCUACAGUCCGACGAUCUGCCUCCUCCUGCCUGAGAAUCACUCCACUACCCUGCCUUGAUCUGGCCACUGGUUCGGUCAAUGUUGUAGUGUCCAAAUAGUGUAUUUUGUAGAAUUCCAGUAAAGCAGGCAAUGAAUCCAACAGAGGAUUGAGCAUCA
B17: 130624029_130624149_2639_CDS_ENSMUSG00000030757_ENSMUST00000042470|mouse|control|control (ssRNA)
RNA: GGGAGUUCUACAGUCCGACGAUCUCUCCUCCCCACACAAGGCCUCUGAUGCACCACAGCCUUCCCUGUAUCUCUAGGUUGAGACAUCAGCUUUCCCUGUCUAACUCCUUGAAGGUUUUCACAGUGUCUUCCUGAGAAGUACUCCAACAGAGGAUUGAGCAUCA
B18: chr5:93601047:93601048:+_ENSMUSG00000058013_ENSMUST00000074733|mus_mus|FALSE|FALSE (ssRNA)
RNA: GGGAGUUCUACAGUCCGACGAUCAAUGAGGUGUUCUUUGAGAUCUGGACCCGUGAGAGUGUCCGGGACGCCCUGGUGGGGGUGAACGUAAUCAUGUUUCUCGUGCCAGUCUGUAGCUGUGGCCUGGCUCUGAAGGUAGGCAUUCAACAGAGGAUUGAGCAUCA
B19: chr1:225611761:225611762:-_ENSG00000143815_ENST00000272163|hu_mus|hu_hu_hu_mus_True|38_38 (ssRNA)
RNA: GGGAGUUCUACAGUCCGACGAUCCCAGGCCAUCGGCCUCUGACCACUUCACCCUCAACAAACUUCCUACUUGGCAUUUUCUAAAAUUAGUCUGGCCCAGGUUCCGGGGGAACUCCAGCCACUCCAGGACAGUCACCAGCAGCCCAACAGAGGAUUGAGCAUCA
B20: chr9:75491700:75491701:-_ENSMUSG00000032181_ENSMUST00000034699|mus_mus|FALSE|FALSE (ssRNA)
RNA: GGGAGUUCUACAGUCCGACGAUCGUAGAUGCGUUUGAUGGCGUUGGCUUCUUCCUUGUCGAGGAUGCCCUUCUCCACAUAAGCGUCAGCUUGUUGGUUGAUAAAGUCCCUCAUCUUUGAAAGGUCGUAAUCUUCUUUGUUGCCCAACAGAGGAUUGAGCAUCA
B21: 148129148_148129268_2566_3pUTR_ENSMUSG00000030304_ENSMUST00000136008|mouse|control|control (ssRNA)
RNA: GGGAGUUCUACAGUCCGACGAUCUCCUGUGUCUGGUAGGGACUGAAACUCAGUCUUCUCACUCAAUGACUUAACCUUUAUCUUUCAAAAAGACAGAAUGAAAUGAGGCUGGCACACAUACUCAGCAGUUCCUAGCAGUACCUGCAACAGAGGAUUGAGCAUCA
B22: chr18:34657717:34657718:-_ENSMUSG00000036501_ENSMUST00000040506|mus_mus|FALSE|FALSE (ssRNA)
RNA: GGGAGUUCUACAGUCCGACGAUCUCAUUGUCUGGAUGUCCUCCCUGCUGCAGCUCAUCAAGUGGAAUUCCAAAUAUUUUGCUAGCAAGAUCGGAGUUGCAGUUACUCAAGGAAGGGGAGGAGCUCUUCCUCAUAGCUUUUUUGCAACAGAGGAUUGAGCAUCA

molecular target: T1, UNK ZnF1-3; experiment: nsRBNS (natural sequence RNA bind-n-seq); RBNS binding buffer (assumed for nsRBNS): 25 mM Tris pH 7.5, 150 mM KCl, 3 mM MgCl2, 0.01% Triton X-100, 500 ug/ml BSA, 20 U/ml SUPERase-In, 4 C; UNK is unkempt and MSI1 is Musashi-1; names of the RNAs are library labels; protein concentration not given here; high values mean tight binding

Row | Binder | binding signal
1 | B1 | 1.73 enrichment R
2 | B2 | 0.69 enrichment R
3 | B3 | 1.03 enrichment R
4 | B4 | 0.601 enrichment R
5 | B5 | 2.05 enrichment R
6 | B6 | 0.365 enrichment R
7 | B7 | 1.24 enrichment R
8 | B8 | 1.15 enrichment R
9 | B9 | 1.01 enrichment R
10 | B10 | 0.827 enrichment R
11 | B11 | 0.759 enrichment R
12 | B12 | 1.03 enrichment R
13 | B13 | 1.03 enrichment R
14 | B14 | 1.52 enrichment R
15 | B15 | 0.73 enrichment R
16 | B16 | 0.91 enrichment R
17 | B17 | 0.969 enrichment R
18 | B18 | 0.67 enrichment R
19 | B19 | 1.52 enrichment R
20 | B20 | 0.32 enrichment R
21 | B21 | 1.12 enrichment R
22 | B22 | 0.771 enrichment R
